Source: the supplement of paper PMC4967469

Assays:
Experiment in all cases: Viability of human cancer cell lines after 72 h of drug (GDSC screen)
BMX-IN-1 (QL-XII-61) = compound: C=CC(=O)Nc1cc(-n2c(=O)ccc3cnc4ccc(-c5ccc(NS(C)(=O)=O)cc5)cc4c32)ccc1C [BMX-IN-1 (QL-XII-61)]; details: top dose 10 µM; top dose inferred
Procedure: (§1)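 Human cancer cell lines in 384-well plates, medium with 10% serum, drug for 72 h over a 256-fold dose range (nine 2-fold or five 4-fold steps up to the top dose). Adherent lines were fixed and stained with the nucleic acid dye Syto60, suspension lines read with resazurin; signal relative to control wells, capped at 0 and 100%. One two-parameter sigmoid per drug and line, fitted in a mixed model over all curves with the slope shared within a line.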

17-AAG = compound: C=CCNC1=C2C[C@@H](C)C[C@H](OC)[C@H](O)[C@@H](C)/C=C(\C)[C@H](OC(N)=O)[C@@H](OC)/C=C\C=C(/C)C(=O)NC(=CC1=O)C2=O [17-AAG]; details: top dose 1 µM
Procedure: as §1

CCT018159 = compound: CCc1cc(-c2n[nH]c(C)c2-c2ccc3c(c2)OCCO3)c(O)cc1O [CCT018159]; details: top dose 10 µM; top dose inferred
Procedure: as §1

BIX02189 = compound: CN(C)Cc1cccc(N=C(c2ccccc2)c2c(O)[nH]c3cc(C(=O)N(C)C)ccc23)c1 [BIX02189]; details: top dose 20 µM; top dose inferred
Procedure: as §1

Dimethyloxalylglycine = compound: COC(=O)CNC(=O)C(=O)OC [Dimethyloxalylglycine]; details: top dose 4000 µM; top dose inferred
Procedure: as §1

OSI-027 = compound: COc1cccc2cc(-c3nc([C@H]4CC[C@H](C(=O)O)CC4)n4ncnc(N)c34)[nH]c12 [OSI-027]; details: top dose 20 µM
Procedure: as §1

Vismodegib = compound: CS(=O)(=O)c1ccc(C(=O)Nc2ccc(Cl)c(-c3ccccn3)c2)c(Cl)c1 [Vismodegib]; details: top dose 10 µM; top dose inferred
Procedure: as §1

VX-11e = compound: Cc1cnc(Nc2ccc(F)cc2Cl)nc1-c1c[nH]c(C(=O)N[C@H](CO)c2cccc(Cl)c2)c1 [VX-11e]; details: top dose 5.12 µM; top dose inferred
Procedure: as §1

TG101348 = compound: Cc1cnc(Nc2ccc(OCCN3CCCC3)cc2)nc1Nc1cccc(S(=O)(=O)NC(C)(C)C)c1 [TG101348]; details: top dose 10.24 µM
Procedure: as §1

UNC1215 = compound: O=C(c1ccc(C(=O)N2CCC(N3CCCC3)CC2)c(Nc2ccccc2)c1)N1CCC(N2CCCC2)CC1 [UNC1215]; details: top dose 1 µM; top dose inferred
Procedure: as §1

| Cell Line | AUC (BMX-IN-1 (QL-XII-61)) | IC50 (BMX-IN-1 (QL-XII-61)) [µM] | AUC (17-AAG) | IC50 (17-AAG) [µM] | AUC (CCT018159) | IC50 (CCT018159) [µM] | AUC (BIX02189) | IC50 (BIX02189) [µM] | AUC (Dimethyloxalylglycine) | IC50 (Dimethyloxalylglycine) [µM] | AUC (OSI-027) | IC50 (OSI-027) [µM] | AUC (Vismodegib) | IC50 (Vismodegib) [µM] | AUC (VX-11e) | IC50 (VX-11e) [µM] | AUC (TG101348) | IC50 (TG101348) [µM] | AUC (UNC1215) | IC50 (UNC1215) [µM] |
| --- | --- | --- | --- | --- | --- | --- | --- | --- | --- | --- | --- | --- | --- | --- | --- | --- | --- | --- | --- | --- |
| NCI-H847 (small cell lung carcinoma, adherent) | 0.841 | 5.11 | 0.992 | > 1 | 0.986 | > 10 | 0.919 | > 20 | 0.716 | 887 | 0.153 | 0.146 | 0.993 | > 10 | 0.975 | > 5.12 | 0.577 | 0.997 | 0.992 | > 1 |
| OV-90 (ovary, adherent) | 0.974 | > 10 | 0.377 | 0.0259 | 0.977 | > 10 | 0.978 | > 20 | 0.659 | 785 | 0.617 | 2.88 | 0.978 | > 10 | 0.909 | > 5.12 | 0.906 | > 10.2 | 0.975 | > 1 |
| OVCAR-4 (ovary, adherent) | 0.959 | > 10 | 0.899 | > 1 | 0.945 | > 10 | 0.892 | > 20 | 0.376 | 96.3 | 0.553 | 1.87 | 0.945 | > 10 | 0.906 | > 5.12 | 0.839 | > 10.2 | 0.97 | > 1 |
| RKO (large intestine, adherent) | 0.985 | > 10 | 0.622 | 0.132 | 0.838 | 6.08 | 0.949 | > 20 | 0.794 | 1690 | 0.564 | 1.84 | 0.983 | > 10 | 0.654 | 0.826 | 0.904 | > 10.2 | 0.987 | > 1 |
| SF268 (glioma, adherent) | 0.97 | > 10 | 0.773 | 0.42 | 0.868 | > 10 | 0.929 | > 20 | 0.566 | 383 | 0.502 | 1.27 | 0.982 | > 10 | 0.936 | > 5.12 | 0.82 | 6.45 | 0.978 | > 1 |
| SF295 (glioma, adherent) | 0.968 | > 10 | 0.527 |  | 0.892 | > 10 | 0.985 | > 20 | 0.571 | 398 | 0.476 | 1.07 | 0.919 | > 10 | 0.985 | > 5.12 | 0.956 | > 10.2 | 0.973 | > 1 |
| SJSA-1 (bone, adherent) | 0.978 | > 10 | 0.7 | 0.248 | 0.869 | > 10 | 0.956 | > 20 | 0.516 |  | 0.479 | 1.09 | 0.984 | > 10 | 0.94 | > 5.12 | 0.738 | 3.39 | 0.982 | > 1 |
| SK-LMS-1 (soft tissue, adherent) | 0.964 | > 10 | 0.839 | 0.634 | 0.845 | 6.72 | 0.948 | > 20 | 0.406 | 140 | 0.268 | 0.285 | 0.98 | > 10 | 0.897 | > 5.12 | 0.902 | > 10.2 | 0.986 | > 1 |
| SK-MEL-2 (melanoma, adherent) | 0.87 | 9.94 | 0.594 | 0.115 | 0.906 | > 10 | 0.987 | > 20 | 0.797 |  | 0.508 | 1.31 | 0.981 | > 10 | 0.987 | > 5.12 | 0.875 | > 10.2 | 0.986 | > 1 |
| SK-N-AS (neuroblastoma, adherent) | 0.979 | > 10 | 0.954 | > 1 | 0.87 | > 10 | 0.943 | > 20 | 0.648 | 688 | 0.37 | 0.517 | 0.984 | > 10 | 0.876 | > 5.12 | 0.816 | 6.8 | 0.981 | > 1 |
| SKN (uterus, adherent) | 0.944 | > 10 | 0.354 | 0.0225 | 0.878 | > 10 | 0.939 | > 20 | 0.516 | 278 | 0.713 | 5.77 | 0.981 | > 10 | 0.982 | > 5.12 | 0.793 | 5.79 | 0.971 | > 1 |
| SNB75 (glioma, adherent) | 0.883 | > 10 | 0.64 | 0.183 | 0.946 | > 10 | 0.976 | > 20 | 0.563 | 401 | 0.818 | 18.9 | 0.977 | > 10 | 0.95 | > 5.12 | 0.835 | > 10.2 | 0.976 | > 1 |
| SW620 (large intestine, adherent) | 0.985 | > 10 | 0.661 | 0.165 | 0.859 | 6.79 | 0.971 | > 20 | 0.759 | 1250 | 0.539 | 1.58 | 0.99 | > 10 | 0.83 | 2.72 | 0.741 | 2.84 | 0.989 | > 1 |

Lines with a small IC50 respond at low doses; a limit (>, <) means that the fit lies beyond the doses tested. AUC sums up the same curve from the lowest dose to the 256-fold higher top dose; it is 1 without any effect and falls as sensitivity rises. For some assays here: The top dose, if marked as inferred, is not printed in the source and was worked back from the curve model.
